Experimental findings from the supplement of paper PMC11417369 are described below.

± gives the standard deviation of the averaged measurements. The list shows a part of the results.

For this experiment, the system named is PfAP2-LT AP2 domain (GST-tagged). Put plainly: gcPBM binding intensity (ln(normalized median fluorescence intensity)); higher = stronger DNA binding. In a few lines: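 The highest Masliner-normalised natural-log median intensity across replicate spots of either probe orientation is reported as binding intensity. GST-tagged P. falciparum DNA-binding domains expressed in E. coli were applied for 1 h to an Agilent 4 × 180k array of primer-extended double-stranded 36-bp intergenic genomic probes plus negative controls, and bound protein was detected with Alexa488 anti-GST antibody and scanned at 488 nm.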
For “AGCATTTTAAAAGAAAAAAAAAAAAAAAAAAAAATA [GTGCAC_negctrl_site723]”, the “gcPBM binding intensity (ln)” value stood at 8.32 ± 0.47.
Take “ATCTATGTTCCTTTTACACACATAATCTTTTTTTTA [CACACA_site5468]”: the “gcPBM binding intensity (ln)” value was found to be 9.2 ± 0.49.
The figure for “ATATATATATATTATACACACAAAAATATTTTGTAT [CACACA_site266]” is 8.96 ± 0.39; for ACGCAATATTAACAAGTGCATTATAACACATAACAT it is 8.93 ± 0.24.
Take “ATAACATTCTATGTTGCACACAAAGAGAAAAATTTA [CACACA_site9322]”: the “gcPBM binding intensity (ln)” value was found to be 8.93 ± 0.38.
As for “GTAAATTATATAACAAATAAAAATGTACATATATAT [CACACA_negctrl_site408]”, the “gcPBM binding intensity (ln)” value was determined as 8.88 ± 0.46.
In the case of “AATAAAAAGTAATAATAACGTATAATTTATTATACT [TGCATGCA_negctrl_site414]”, the “gcPBM binding intensity (ln)” value amounted to 8.6 ± 0.4.
The figure for “TCTTGTTATTTAAATGCATGTTGATTTTAAAAAATT [TGCATGCA_site840]” is 8.32 ± 0.43; for “TATACTTTATATATTTTGTATATATATTTTTTTTAT [TGCATGCA_negctrl_site530]” it is 8.8 ± 0.48; for “ATATATATAGATTGTACACACATTTATGCATATATA [CACACA_site3222]” it is 9.18 ± 0.33.
In the case of “TTTTTTTTTAGAAAAACATGCATGTCCTAAAAATAA [TGCATGCA_site684]”, the “gcPBM binding intensity (ln)” value was determined as 8.26 ± 0.33.
“ATATGATAAATTATATGTACTTAAAATATATTATAA [XGTACX_site5904]”: the “gcPBM binding intensity (ln)” value turned out to be 8.47 ± 0.47.
The figure for “TGGCAAAATAGGCACACACACATATACATCTATATT [CACACA_site6626]” is 9.73 ± 0.46; for “AAAAAAAAAAAAAAAAAAAAAAAAACAATGAATTTA [GTGCAC_negctrl_site698]” it is 8.82 ± 0.19; for “AGTAGATATAATTATAGTACTTTGATGTTTTCTTTA [XGTACX_site5038]” it is 8.63 ± 0.47.
Take “ATGTATTTATTATTTAGTACACATTATTTTCTTATA [XGTACX_site6365]”: the “gcPBM binding intensity (ln)” value amounted to 8.82 ± 0.4.
“TAAACAGTATGCAACGCATGCGTTGTTATATATAAA [TGCATGCA_site232]”: the “gcPBM binding intensity (ln)” value is 8.99 ± 0.41.
Consider “AAATTTTCTTTTAAGTGTACGAAATTTAGTATTTCA [XGTACX_site7819]”, for which the “gcPBM binding intensity (ln)” value was 8.54 ± 0.3.
For the sequence “ATTTTTTTTTTTTTTTTTTTATTCTTAATTCATATA [CACACA_negctrl_site342]”, the “gcPBM binding intensity (ln)” value amounted to 8.52 ± 0.51.
As for “TATATATAAATATATACACACATGAAAATAAATAAA [CACACA_site2514]”, the “gcPBM binding intensity (ln)” value was found to be 8.95 ± 0.4.
Turning to “TTTTTGTTTGTTCACGACTACATTATGTCATAAATG [CACACA_negctrl_site597]”, the “gcPBM binding intensity (ln)” value came to 8.91 ± 0.33.
The figure for “GTCATATATTATAATAGTACATAAATAATTGATGCC [XGTACX_site3567]” is 8.97 ± 0.33; for “TTTTTCTATATTTTCTTTTATAAAATATATAATTTT [GTGCAC_negctrl_site345]” it is 8.29 ± 0.66; for “CACAGAAATAGAGATACACACACACCGATATTTATG [CACACA_site9313]” it is 9.79 ± 0.29.
On to “ATAGTTATTTTATAGCGTACACAATAAATATATAAA [XGTACX_site4445]”, for which the “gcPBM binding intensity (ln)” value was determined as 8.69 ± 0.47.
The figure for “CAAATGTAGAAAATGTGTACATAAAAAAAAAAAAAA [XGTACX_site8276]” is 8.87 ± 0.47; for “AGTCAATTTTGTGTGTCAACATTTATATAAAGAATG [TGCATGCA_negctrl_site400]” it is 8.89 ± 0.35; for “TGTGAAAATTATGGGGCATGCAATACTTTAAAAATA [TGCATGCA_site653]” it is 8.9 ± 0.52.
Turning to “TTTTGGCTGATCAGATTTAACAAAAAAAAAAAAAAA [CACACA_negctrl_site671]”, the “gcPBM binding intensity (ln)” value stood at 8.21 ± 0.39.
Regarding “CAAATATATATTTTCTGTACAAATACAATTAATACT [XGTACX_site2694]”, the “gcPBM binding intensity (ln)” value amounted to 8.54 ± 0.52.
Turning to “CCTTCAATTTACATAACACACATTTAACCATAATAA [CACACA_site2394]”, the “gcPBM binding intensity (ln)” value worked out at 8.72 ± 0.41.
In the case of “TTTAGCCAATTTTTAAAGTTTAAAAAAGAAAAAAGA [CACACA_negctrl_site118]”, the “gcPBM binding intensity (ln)” value was found to be 8.16 ± 0.35.
“TATTAAAAATACATATGTACTCATAGCATAAAACAT [XGTACX_site8686]”: the “gcPBM binding intensity (ln)” value turned out to be 8.89 ± 0.3.
As to “ATATATATATTTGTGTGTACATATTAATTTGTATGA [XGTACX_site4047]”, the “gcPBM binding intensity (ln)” value is 9.13 ± 0.35.
For “AACGCGAACAATTTATAGATAACTTTTAATTATTAT [GTGCAC_negctrl_site179]” the value was 8.63 ± 0.5.
On to “TATATATATATAAACTGTACTATTTTATGTTAAAAG [XGTACX_site3630]”, for which the “gcPBM binding intensity (ln)” value turned out to be 8.63 ± 0.34.
In the case of “ATTTAATACAAATACACACACAAATATATACATATA [CACACA_site3747]”, the “gcPBM binding intensity (ln)” value worked out at 9.44 ± 0.34.
Regarding “AATATATATATAGGATGTACACATAATTCAAATACA [XGTACX_site6368]”, the “gcPBM binding intensity (ln)” value was 8.99 ± 0.47.
For the sequence “ATACATTTTTGTAAAAGTACATATACATGCCCCCTT [XGTACX_site1367]”, the “gcPBM binding intensity (ln)” value worked out at 9.15 ± 0.19.
For “ATGGTATATCCAAATAAACACACGTAAATACATAAA [CACACA_site1682]” the value was 9.01 ± 0.5; for “GTAAGTTTGAATACACGTACAAATTTATTAAAGTCC [XGTACX_site6722]”, 8.91 ± 0.39; for “TTCCAAAATTGCATTTGTACCCAAAAAATGTATACG [XGTACX_site7680]”, 8.64 ± 0.35.
On to “AGATATTAAAACGTTACACACATTTATATATCTTCT [CACACA_site908]”, for which the “gcPBM binding intensity (ln)” value was 9.07 ± 0.4.
With “GCTTTTTATTTTTACCGTACATTATATATGTATATA [XGTACX_site808]”, the “gcPBM binding intensity (ln)” value came to 9.05 ± 0.29.
Regarding “ATCAGTCGGCAGGACAGTACACAGTAGCCAGGAAAT [XGTACX_site2003]”, the “gcPBM binding intensity (ln)” value came out at 9.18 ± 0.53.
With “ATATTATTAATTTATAGTACTCATTTTTTTTTTTTT [XGTACX_site3536]”, the “gcPBM binding intensity (ln)” value came to 8.71 ± 0.43.
For the sequence “TTTCTAGTTACAAGAGTGCATAATATATAAAAATAA [GTGCAC_site9874]”, the “gcPBM binding intensity (ln)” value stood at 8.47 ± 0.45.
For “TATATATATATATATACACACATTTTTAATGATAAA [CACACA_site2695]” the value was 9.39 ± 0.014; for “TATAAATACAATTCACAAGAGATCATGTATCAAACC [CACACA_negctrl_site1219]”, 8.84 ± 0.42.
Regarding “ATATAATAAATATGTTGTACTATAAAAAATAGCCAT [XGTACX_site4710]”, the “gcPBM binding intensity (ln)” value came out at 8.78 ± 0.33.
Take “TATATATTATATATATGTACATATTGTTGTGTATAT [XGTACX_site767]”: the “gcPBM binding intensity (ln)” value was 9.01 ± 0.44.
For “ATCTCTGTAAAGATCACACATATATTTTTGTTATAT [CACACA_site5094]”, the “gcPBM binding intensity (ln)” value came to 8.94 ± 0.44.
In the case of “TTTATAATTTATATCACACATATATCTGTAATAAAT [CACACA_site5048]”, the “gcPBM binding intensity (ln)” value was found to be 8.62 ± 0.45.
The figure for “CATATATGTTATATTTAACACACATATAAGGTACAT [CACACA_site8105]” is 9.02 ± 0.33; for “CAGCTCTTAAAAATTACACACATATACACATATATA [CACACA_site9073]” it is 8.97 ± 0.38; for “TTATTACACACATATGTGCACATATAAAAGTACACG [GTGCAC_site9581]” it is 9.16 ± 0.27.
